Reference: PubChem BioAssay AID588855 (National Center for Advancing Translational Sciences (NCATS), 2011)
Screen size: about 410,000 compounds; about 5,000 (1.2%) were called active. The inconclusive results got no clear call from the source; some entries with a clear call stand among them for comparison. The call rests on the fitted dose curve; in most records, active means well fitted inhibition curve with a large enough effect; inconclusive means small, poorly fitted or top-dose-only effect; inactive means no such curve, though single readings can be large or run the other way. Potencies of inconclusive entries are doubtful fits and often do not repeat.

assay: qHTS for Inhibitors of TGF-b; details: HepG2 CAGA-GFP TGF-b/SMAD3 reporter, GFP fluorescence, 18 h, TGF-beta stimulated, 500 pg/mL final; series mostly up to 46.1 µM; further: nearly all actives have a fitted effect of over 65% in size
Summary of the method: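 Smad-responsive CAGA-GFP expression was quantified in HEPG2 cells exposed to compounds and 500 pg/mL final TGF-beta for 18 h at 37 degrees C; unstimulated wells defined full inhibition.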
Potency means the concentration at half of the fitted maximal effect; tags describe the fitted curve by direction and shape.

| SMILES | Potency |
| --- | --- |
| CC(C)CC(=O)N1CCN(C(=O)c2cccc(F)c2)CC1 | inactive |
| CC1Cc2ccccc2C(CCc2ccccc2)=N1 (centres undefined) | inactive |
| CCCn1c(SCN2C(=O)c3ccccc3C2=O)nc2cc(Cl)ccc2c1=O | inactive |
| COc1cccc(N2CC(NC(=O)C(c3ccccc3)c3ccccc3)CC2=O)c1 (centres undefined) | inconclusive: 35.5 µM [inhibitor, single point] |
| COc1ccc(C(C(=O)NC2CCCCC2)N(Cc2cccs2)C(=O)Cc2c[nH]c3ccccc23)cc1 (centres undefined) | inconclusive: 15.8 µM [inhibitor, single point] |
| CCCCCCCCNC(=O)C(CCC(=O)OCc1ccccc1)NC(C)=O (centres undefined) | inconclusive: 28.2 µM [inhibitor, single point] |
| Cc1c(C(=O)Nc2cccc(-c3nnc4n3CCCCC4)c2)oc2ccccc12 | inconclusive: 35.5 µM [inhibitor, single point] |
| C/C(=N\Nc1ccc(S(N)(=O)=O)cc1[N+](=O)[O-])c1ccco1 | inconclusive: 7.94 µM [inhibitor, partial curve, poor fit] |
| COc1cc(-c2ccno2)ccc1S(=O)(=O)N1CCN(c2cc(C)ccc2C)CC1 | inconclusive: 15.8 µM [inhibitor, partial curve, poor fit] |
| COc1ccc(N2CCN(C(=O)CCC(=O)c3cc(C)sc3C)CC2)cc1 | inactive |
| O=C(CSc1nnnn1-c1ccccc1)Nc1nsc(-c2ccc(Cl)cc2)n1 | inconclusive: 35.5 µM [inhibitor, single point] |
| CC1(C)Oc2ccccc2OC1(O)c1ccc2ccccc2n1 (centres undefined) | inconclusive: 4.47 µM [inhibitor, single point] |
| COc1ccc2nc(NC(=O)CCn3cccc3)sc2c1 | inactive |
| O=C(Nc1cccc(S(=O)(=O)N2CCCCC2)c1)c1c2c(nc3ccccc13)CCN(Cc1ccccc1)C2 | inconclusive: 10 µM [inhibitor, partial curve] |
| Cc1ccc(S(=O)(=O)N(C)c2ccc(C(=O)NCC(c3cccs3)N3CCOCC3)cc2)cc1 (centres undefined) | inactive |
| Cc1ccc(CNC(=O)c2cc3sccc3n2Cc2ccc(Cl)cc2)cc1 | inconclusive: 15.8 µM [inhibitor, single point] |
| O=C(O)c1c(-c2ccccc2)c2oc3ccccc3c2[nH]c1=O | inconclusive: 20 µM [inhibitor, single point] |
| CCCn1c(=O)c2sccc2n2c(CCCC(=O)NCCc3ccc(Cl)cc3)nnc12 | inconclusive: 35.5 µM [inhibitor, single point] |
| CCCCC(=O)NC(c1ccc(OC)c(OC)c1)c1ccc2cccnc2c1O (centres undefined) | inconclusive: 3.55 µM [inhibitor, full curve, poor fit] |
